# Among all 50,000 compounds or so, about 800 (1.6%) showed an effect of 50% or more. Some of the results follow.
# Molecular target: Bcl-2-like protein 10 (Homo sapiens) (UniProt Q9HD36)
# Test: Phenotype converters, Bcl-B/TR3 peptide binding displacement, primary biochemical FP (AID 1240);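 further: 0% = Bcl-B with tracer peptide and DMSO and 100% = tracer peptide lacking Bcl-B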
# Details: GST-Bcl-B / FITC-TR3 peptide fluorescence polarization; stronger effect = higher value; compound at 3.75 mg/L
# UniProt Q9HD36, sequence (Q9HD36 whole entry, looked up): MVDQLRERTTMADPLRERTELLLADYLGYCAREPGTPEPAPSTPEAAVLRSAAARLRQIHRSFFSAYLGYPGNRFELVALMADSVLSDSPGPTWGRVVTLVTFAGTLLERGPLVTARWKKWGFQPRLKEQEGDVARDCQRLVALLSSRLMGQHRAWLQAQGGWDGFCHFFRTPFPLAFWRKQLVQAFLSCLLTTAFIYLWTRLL
row,SMILES,displacement [%]
1,CCOc1ccc(/C=N\NC(=O)C2CC(=O)N(c3ccc(C)cc3)C2)cc1 (stereo not given),-2.3
2,CCSc1nnc(NC(=O)c2cc(-c3ccc(C)cc3)nc3ccccc23)s1,11.9
3,Cc1cc(C)n2c(SCC(C)C)nnc2n1,1.9
4,Cc1ccnc(NS(=O)(=O)c2ccc(NC(=O)c3c(-c4ccccc4)noc3C)cc2)n1,-6.1
5,CCOC(=O)C(Cc1ccccc1)P(=O)(OCC)OCC (stereo not given),-0.5
6,CC(C)OC(=O)c1c(-c2ccc(Br)cc2)csc1NC(=O)/C=C/C(=O)O,15.2
7,Cc1occc1C(=O)NCCc1cccc(Cl)c1,-3.3
8,CCOC(=O)C1=C(C)OC(N)=C(C(=O)OCC)C1c1ccc([N+](=O)[O-])cc1 (stereo not given),-6.8
9,Cc1ccccc1N(C)S(=O)(=O)c1ccc(Cl)cc1,32.7
10,CC(C)C(=O)NCCN1CCOCC1,-0.3
11,COc1ccccc1NC(=O)C1=C(C)NC(=O)NC1c1ccc(C(C)C)cc1 (stereo not given),-3.6
12,CCC(C(=O)Nc1ccc(C)cc1C)c1ccccc1 (stereo not given),-1.5
13,COc1cccc(/C=C2\C(=O)N(c3ccc(S(N)(=O)=O)cc3)N=C2C)c1,-3.5
14,O=C1C(Cl)=C(N2CCCCC2)C(=O)N1c1ccc(Cl)c(Cl)c1,-12.3
15,O=C(Oc1ccc(/C=C2/SC(=S)N(c3ccccc3)C2=O)cc1)c1cccc([N+](=O)[O-])c1,-7.6
16,CC1=C(C#N)C(c2ccc(OCc3ccccc3)cc2)C2=C(CC(c3ccc(Cl)cc3)CC2=O)N1 (stereo not given),-2
17,CCOC(=O)c1ccc2[nH]c(C)c(CCC(C)=O)c(=O)c2c1,-6.1
18,CCOc1ccc(NC(=O)/C=C/c2ccc([N+](=O)[O-])cc2)cc1,-2.5
19,Nn1c(SCC(=O)c2ccc([N+](=O)[O-])cc2)nc2ccccc2c1=O,-1
20,CCOC(=O)c1ccc(-c2ccc(/C=C3/SC(N)=NC3=O)o2)cc1,-27.3
21,O=C(Nc1ccc(Cl)cn1)c1ccccc1-c1ccccc1,-3.7
22,O=C(Nc1ccccc1F)c1ccc(CSc2ccc(Cl)cc2)cc1,6

row,SMILES,displacement [%]
1,Cc1c(NC(=O)C(c2ccccc2)c2ccccc2)cccc1[N+](=O)[O-],-6.3
2,Cc1ccc(N2C(=O)c3ccccc3C2=O)cc1C,19.4
3,CCCOC(=O)c1c(N)sc2c1CCCCC2,4.4
4,Cc1cc(C)c(OCC(=O)Nc2ccc(I)cc2)c(C)c1,16.4
5,Cc1ccccc1NC(=O)C(=O)NNC(=O)c1ccccc1C,-8.5
6,Cc1cccc(OCC(=O)NC2C3CC4CC(C3)CC2C4)c1 (stereo not given),8
7,CC1=C(C(=O)OC2CCCCC2)C(c2ccco2)C2=C(CC(C)(C)CC2=O)N1 (stereo not given),-4.9
8,CC1CCc2c(sc(NC(=O)c3ccc(Cl)c(Cl)c3)c2C(N)=O)C1 (stereo not given),-5.8
9,COc1cc(C=Nc2ccc(Nc3ccccc3)cc2)ccc1OCc1ccccc1,26.2
10,O=C(Nc1ccc(Cl)cn1)c1cc2ccccc2o1,13
11,COc1ccc(C(=O)O/N=C(\c2ccncc2)c2ccc([N+](=O)[O-])cc2)cc1OC,0.6
12,Cc1cccc(NC(=O)C(=O)NCc2ccccc2Cl)c1,4.9
13,COc1ccc(C(=O)NC(=S)NCc2ccco2)cc1,9.4
14,COc1cc(NC(=O)c2ccccc2Cl)ccc1NC(=O)c1ccco1,27.4
15,COc1cccc(/C=C2\C(=O)N(c3cccc(C(=O)O)c3)N=C2C)c1,-7
16,CC(C)OC(=O)c1c(NC(=O)c2ccc([N+](=O)[O-])cc2Cl)sc2c1CCCCC2,-10.4
17,Cc1ccc(S(=O)(=O)Nc2ccc(Cl)cc2)cc1[N+](=O)[O-],10
18,CCOc1ccc(/C=C2\C(=O)NC(=O)N(c3ccc(C)cc3)C2=O)cc1Br,-0.9
19,COc1ccc(C(=O)CCNc2ccc3c(c2)OCCO3)cc1,6.2
20,C#CCOc1c(Cl)cc(C=O)cc1Cl,-9.8
21,Cc1oc(C)c2c(=O)cc(-c3ccc(O)cc3)cc(O)c12,11.4
22,O=C(NCCCN1CCOCC1)/C(=C/c1ccc(-c2ccc(Cl)cc2)o1)NC(=O)c1ccccc1,8.1

row,SMILES,displacement [%]
1,O=C(Nc1ccc(-c2nc3ccccc3o2)c(O)c1)c1ccc(Cl)cc1,15.4
2,COc1cccc(N=c2ssc3c2-c2cc(C)c(C)cc2NC3(C)C)c1,1.4
3,O=C(NC12CC3CC(CC(C3)C1)C2)c1ccccc1,-5.5
4,COc1ccccc1N1CCN(/N=C/C=C\c2ccco2)CC1,-6.1
5,COC(=O)c1c(NC(C)=O)sc(/C(C)=C/C#N)c1C,0.9
6,COc1ccc(-c2nnc(/N=C/c3c(C)[nH]n(-c4ccc(C)c(C)c4)c3=O)s2)cc1,-2.9
7,O=C(Nc1ccc(Cl)cn1)C(Sc1ccccc1)c1ccccc1 (stereo not given),7.7
8,NNC(=O)C1(c2ccccc2)CCCC1,9.8
9,O=C(c1ccccc1)C(Sc1ncn[nH]1)c1ccccc1 (stereo not given),14.3
10,Cc1ccc(N2NC(=O)/C(=C/c3ccc(O)c(O)c3)C2=O)cc1,-115
11,CC(C)CC(NC(=O)c1ccco1)C(=O)O (stereo not given),9.5
12,CCCCOc1ccc(-c2c(C#N)c(N)nc(SCc3ccc(Cl)cc3)c2C#N)cc1,4
13,CCOc1cc(OCC)cc(C(=O)Nc2ccc(Cl)c(Cl)c2)c1,10
14,CC(C)CCNC(=O)C(=O)NCC(C)O (stereo not given),12.1
15,O=C(COc1ccccc1[N+](=O)[O-])NC(c1ccccc1)c1c(O)ccc2ccccc12 (stereo not given),1.6
16,CN(Cc1ccccc1)C(=O)c1ccc(CN2CCc3ccccc3C2)cc1,-2
17,O=C1CN(C(=O)c2cccc(Cl)c2)C(c2ccccc2Cl)c2cc(Br)ccc2N1 (stereo not given),3.1
18,Nc1nonc1N=Cc1cc(Br)ccc1O,-12.8
19,COC(=O)c1ccc(N(C(=O)C(F)(F)F)C2C=CS(=O)(=O)C2)cc1 (stereo not given),15.1
20,COc1cccc(CN2CCN(Cc3ccccn3)CC2)c1,-24.8
21,CCOC(=O)c1c(C)[nH]c(N=Nc2ccccc2Cl)c1C,0.3
22,COC(=S)N/C(=N/S(=O)(=O)c1ccc(Cl)cc1)c1ccccc1,14

row,SMILES,displacement [%]
1,Clc1cccc(Cl)c1OCCCN1CCCC1,-4
2,O=S(=O)(c1ccc2ccccc2c1)N1CCc2ccccc21,10.5
3,O=C1/C(=C\c2ccc(-c3cccc([N+](=O)[O-])c3)o2)SC(=S)N1C1CCS(=O)(=O)C1 (stereo not given),7.1
4,CN(C)c1ccc(C2C(C(=O)/C=C/c3ccccc3)=C(O)C(=O)N2CCCCCC(=O)O)cc1 (stereo not given),3.4
5,O=C(N/N=C/c1ccco1)c1ccccn1,-6.5
6,CCC(C)(C)C1CCc2c(sc(NC(=O)C(C)C)c2C#N)C1 (stereo not given),-8.2
7,CSC(=O)NC1(Cc2ccc(O)cc2)CCCCC1,-4.1
8,C#CCn1cc(/C=C2\C(=O)NC(=O)N(c3ccc(C)cc3)C2=O)c2ccccc21,66.4
9,COc1ccc(C(=O)CC(c2ccccc2)C2CCCCC2=O)cc1 (stereo not given),3.8
10,COc1ccc(OC)c(C2C3=C(Nc4c2c(=O)n(C)c(=O)n4C)c2ccccc2C3=O)c1 (stereo not given),8.5
11,COc1ccc(-c2nnc(SCC(=O)NN)n2-c2ccccc2)cc1,-1
12,O=C1c2ccccc2C(=O)N1c1ccc2nc(SCc3ccccc3)sc2c1,-2.2
13,CCN(CC)CCC(=O)c1ccc2c(c1)OCO2,-5.3
14,COc1cc([N+](=O)[O-])cc(/C=C2/C(=O)NC(=O)N(c3cccc(C)c3)C2=O)c1O,1.7
15,Cc1cc(C)n(S(=O)(=O)c2ccc(Br)cc2C)n1,3.3
16,Cc1c(Cl)c(C(F)(F)F)nn1CC(=O)Nc1ccc(F)cc1F,11.4
17,COC(=O)C1=NN(C(=O)c2ccccc2)C(O)(c2ccc(OC)cc2)C1 (stereo not given),-16.1
18,CCOc1ccc(N2C(=O)c3cccc4cccc(c34)C2=O)cc1,-9.7
19,CCOC(=O)C1C(=O)CC(O)(c2ccc(Cl)cc2)CC1C=C(Cl)Cl (stereo not given),14.9
20,CC1CC(N(C(=O)c2ccco2)c2ccccc2)c2ccccc2N1 (stereo not given),10.5
21,CC(C)(C)CC(C)(C)NS(=O)(=O)c1ccc([N+](=O)[O-])cc1,-1.3
22,COc1ccc(N(CC(=O)Nc2ccccc2Cl)S(C)(=O)=O)c(OC)c1,-11.6

row,SMILES,displacement [%]
1,S=c1n(CN2CCOCC2)nc(-c2ccccc2Cl)n1-c1ccccc1,2.8
2,O=C1C(=O)N(c2cccnc2)C(c2ccc(F)cc2)/C1=C(\O)c1ccc(Cl)cc1 (stereo not given),-19.7
3,O=C(Nc1ccc2c3c(cccc13)CC2)c1ccccc1[N+](=O)[O-],-2.5
4,N#Cc1cc2c(nc1SCC(=O)Nc1nccs1)CCCC2,3.8
5,COc1cc(OC)c(/C=C2\C(=O)NC(=O)N(c3ccccc3)C2=O)c(OC)c1,-3.3
6,O=C(Cc1ccc(F)cc1)Nc1cccc2ccccc12,-2.3
7,Oc1ccc(Br)cc1CN1CCN(Cc2ccncc2)CC1,0.8
8,CCOC(=O)C(CCC(OC(=O)c1ccccc1)(C(=O)OCC)C(=O)OCC)(OC(=O)c1ccccc1)C(=O)OCC,3.7
9,Cc1ccc(O)c(N2C(=O)c3ccc(C(=O)c4cccc([N+](=O)[O-])c4)cc3C2=O)c1,-26.4
10,COc1ccc(-c2cc(C(=O)NC3CCCCC3)c3ccccc3n2)c(OC)c1,-0.1
11,O=C(c1ccc(F)cc1)N1CCN=C1c1ccccc1,-19
12,O=C(c1ccc(N2CCN(C(=O)c3cccs3)CC2)cc1)c1cccc(F)c1,-4
13,CC(=O)NC(=O)c1ccccc1OCC(=O)c1ccc(Br)cc1,1.8
14,O=C(/C=C/c1ccccc1)NC(=S)Nc1ccc(Cl)cc1Cl,0.3
15,O=C1C(=C(c2ccccc2)c2ccccc2)C(=O)c2ccccc21,-5.3
16,CCOC(=O)c1c(NC(=S)Nc2ccc(OC)cc2)sc2c1CC(C)(C)OC2,-4.4
17,CS(=O)(=O)N(CC(=O)O)c1cccc(C(F)(F)F)c1,-0.2
18,CCCCn1c(O)c(C2=c3cc(Br)ccc3=NC2=O)sc1=S,-1
19,Cc1cc(C)c(NC(=O)c2ccc(C(=O)Nc3c(C)cc(C)cc3C)cc2)c(C)c1,13.1
20,COC(=O)c1c(N)sc(C)c1-c1cc(C)ccc1C,-0.7
21,COc1ccc(NC(=O)Cn2nc(C)c([N+](=O)[O-])c2C)cc1OC,-2.3
22,O=C(O)c1ccc(Cl)c(S(=O)(=O)N2CCCC2)c1,5.8
